# Data taken from PubChem BioAssay AID1345083 (National Center for Advancing Translational Sciences (NCATS), 2018).
# The whole screen tested about 94,000 compounds, of which about 6,200 (6.6%) were called active. The shares of active, inactive and inconclusive entries below differ from those in the screen. The call rests on the fitted dose curve; in most records, active means well fitted inhibition curve with a large enough effect; inconclusive means small, poorly fitted or top-dose-only effect; inactive means flat fitted curve, though single readings scatter. Where the call is inconclusive, the potency comes from a doubtful curve fit.
# Assay: Cytotoxic Profiling in HEK 293 Cell Line of Diverse Libraries Using Quantitative High-Throughput Screening; further: nearly all actives have a fitted effect of over 60% in size
# Settings: HEK 293 viability, ATP luminescence (CellTiter-Glo), 48-72 h; series mostly up to 115 µM
# Summary of the method: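 250 HEK 293 cells/well; compound by pintool; incubated 48 or 72 hr at 37 degree Celsius; CellTiter-Glo added, 10 min RT, luminescence imaged.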
# Potency means the concentration at half of the fitted maximal effect; tags describe the fitted curve by direction and shape.
row,Structure (SMILES),Potency
1,COc1ccc(CC(=O)Nc2ccc([C@H]3OCC(=O)N(Cc4ccc(F)cc4)[C@@H]3CO)cc2)cc1,"inconclusive: 89.1 µM [inhibitor, single point]"
2,Cc1cccc(-c2cccc(CN3CCC(NC(=O)Cc4ccc(F)cc4)CC3)c2)c1,"inconclusive: 20 µM [inhibitor, full curve, poor fit]"
3,Cc1ccc(CNC(=O)c2cc3n(n2)CC(c2ccc(Cl)cc2)OC3)cc1 (configuration not stated),"inconclusive: 50.1 µM [inhibitor, partial curve, poor fit]"
4,CCCN1CCC2(CCN(C(=O)c3ccccc3)CC2)Oc2ccccc21,"inconclusive: 56.2 µM [inhibitor, partial curve, poor fit]"
5,Cc1noc(C)c1CC(=O)N1CCCCCCNC(=O)[C@@H]2CCCC[C@@H]21,inactive
6,c1ccc(-c2ccc3ncc(Nc4cnccn4)n3n2)cc1,"inconclusive: 141 µM [inhibitor, partial curve, poor fit]"
7,COc1ccc(C(=O)N2CCC3(CC2)NCCc2c3[nH]c3ccc(OC)cc23)c(OC)c1,"inconclusive: 12.6 µM [inhibitor, full curve, poor fit]"
8,O=C(c1ccc(C(F)(F)F)cc1)N1CCC(C(=O)N2CCC(c3nc4ncccc4[nH]3)C2)CC1 (configuration not stated),inactive
9,CCOCCOC1CCN(C(=O)c2ccccc2OC)CC1,inactive
10,CC(C)CN(Cc1cccnc1)C1CN(C(=O)CC2CCCCC2)C1,"inconclusive: 50.1 µM [inhibitor, partial curve, poor fit]"
11,CN(Cc1csc(-c2ccccc2)n1)C(=O)c1ccc(-n2cnnn2)cc1,"inconclusive: 79.4 µM [inhibitor, partial curve, poor fit]"
12,CC(=O)N1CCc2nn(CC(=O)Nc3ccc(F)cc3C)c(=O)cc2C1,inactive
13,COc1cc(-c2cc(-c3ccccc3)nc3c(C)noc23)ccn1,inactive
14,O=C(CCc1ccccc1)N1CCCCCC1c1nnc(-c2ccccc2)o1 (configuration not stated),"inconclusive: 79.4 µM [inhibitor, partial curve, poor fit]"
15,CCc1ccccc1NC(=O)Cn1c(N2CCN(c3ccccc3)CC2)nc(C)cc1=O,inactive
16,O=C1CCN(CC(O)C(F)(F)F)c2ccccc2CCN1Cc1ccccc1 (configuration not stated),"inconclusive: 3.16 µM [inhibitor, partial curve, poor fit]"
17,COc1ccc(CNC(=O)C2CCN(C(=O)C3CN(c4ccc(OC)cc4)C(=O)N3)C2)cc1 (configuration not stated),inactive
18,COc1ccc(CNC(=O)c2ccc(-c3ccc(N4CCSCC4)nc3)cc2)cc1OC,"inconclusive: 10 µM [inhibitor, full curve, poor fit]"
19,CC1(C(=O)NCc2ccsc2)CCOCC1,inactive
20,COc1ccc(C(=O)N2C[C@@H](Oc3cccnc3)C[C@H]2C(N)=O)cc1F,inactive
21,Cc1ccc(CN2CCC(c3nn(C)c(=O)n3Cc3ccccc3)CC2)o1,"inconclusive: 89.1 µM [inhibitor, single point]"

row,Structure (SMILES),Potency
1,COc1ccc(-n2c(=O)c3c(n2Cc2ccccc2)CN(C(=O)C2CCC(OC)CC2)CC3)cc1 (configuration not stated),inactive
2,C[S+](=O)([O-])CCn1ncc2cc(OCc3cccc(-c4cccnc4)c3)ccc21,active: 79.4 µM
3,O=C(Nc1cccc(F)c1)C1CCN(C(=O)c2ncn3c2COC(c2ccc(F)cc2)C3)CC1 (configuration not stated),"inconclusive: 79.4 µM [inhibitor, partial curve, poor fit]"
4,Cc1ccc(C(=O)NC[C@H]2O[C@@H](CC(=O)Nc3ccccc3)[C@H](O)[C@@H]2O)cc1,inactive
5,Cc1oc(C(O)c2ccccc2F)nc1C(=O)Nc1ccc(C(N)=O)cc1 (configuration not stated),"inconclusive: 79.4 µM [inhibitor, partial curve, poor fit]"
6,CCc1cccc(NC(=O)Cn2c(-c3cnccn3)nc(C)c(C)c2=O)c1,"inconclusive: 79.4 µM [inhibitor, single point]"
7,Cc1nc(-c2cccc(Cl)c2)n(CC(=O)NCc2ccc(F)cc2)c(=O)c1CCO,"inconclusive: 44.7 µM [inhibitor, partial curve, poor fit]"
8,CC(C)(C)c1cc(C[C@@H]2CC[C@H](O)[C@@H](CNC(=O)C3CC3)O2)no1,inactive
9,O=C(NC1CCN(C(=O)c2ccc(-c3cncnc3)cc2)CC1)c1ccccc1,inactive
10,c1ccc(Oc2cc3c(cn2)NCCN(Cc2ccc4[nH]ccc4c2)C3)cc1,active: 89.1 µM
11,Cc1nn(-c2ccccc2)c(Oc2ccccc2F)c1CCC(=O)NCc1ccco1,active: 44.7 µM
12,CCc1ncc(C(=O)N(C)C2CCN(Cc3ccccc3)C2)cn1 (configuration not stated),inactive
13,O=C(NCCc1c[nH]c2ccccc12)[C@@H]1C[C@H]2C(=O)NCCCCCCN(C(=O)c3ccco3)[C@H]2C1,inactive
14,Oc1ccc(-c2nc(C3CC3)nc3c2CCN(Cc2ccc(OC(F)(F)F)cc2)CC3)cc1,"inconclusive: 56.2 µM [inhibitor, partial curve, poor fit]"
15,O=C1C(N2CCN(S(=O)(=O)c3cc(F)cc(F)c3)CC2)CCN1CCc1ccccc1 (configuration not stated),"inconclusive: 89.1 µM [inhibitor, single point]"
16,Cc1nn(-c2ccc(C(F)(F)F)cc2)c(C)c1[C@@H]1C=C[C@@H](NC(=O)c2cccs2)C1,"inconclusive: 28.2 µM [inhibitor, full curve]"
17,c1cc(CNC[C@H]2Cn3cc(-c4ccc5c(c4)OCCCO5)nc3CO2)ccn1,inactive
18,Cn1cccc1CN1CCC2(C1)C(=O)N(Cc1ccccc1)c1ccccc12 (configuration not stated),"inconclusive: 50.1 µM [inhibitor, partial curve, poor fit]"
19,COc1ccc(C(=O)N2CCC(n3cc(-c4nc(-c5ccccc5)no4)nn3)CC2)c(C)c1,"inconclusive: 79.4 µM [inhibitor, partial curve, poor fit]"
20,CCOc1ccc(CN2C[C@@H]3C(=O)N(CCN4CCc5ccccc5C4)C(=O)[C@@H]3C2)cc1,"inconclusive: 50.1 µM [inhibitor, partial curve, poor fit]"
21,O=C(c1ccccc1F)N1CCN(c2cc(-c3ccc(F)cc3)[nH]n2)CC1,"inconclusive: 44.7 µM [inhibitor, partial curve, poor fit]"
